Lines with a small IC50 respond at low doses; where the fit passes the top or lowest dose, that dose stands as a limit. AUC is the area under the same curve over the 256-fold range up to the top dose, as a fraction; values near 1 show little effect. Any top dose called inferred comes from the curve model; the source does not state it. Bounds are passed on as bounds.

Compound in the assay: Cn1cc(C2=C(c3cn(C4CCN(Cc5ccccn5)CC4)c4ccccc34)C(=O)NC2=O)c2ccccc21 [LY317615]
As to the kind of experiment: Viability of human cancer cell lines after 72 h of drug (GDSC screen). The following applies: top dose inferred. The procedure: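 Human cancer cell lines in 384-well plates, medium with 10% serum, drug for 72 h over a 256-fold dose range (nine 2-fold or five 4-fold steps up to the top dose). Adherent lines were fixed and stained with the nucleic acid dye Syto60, suspension lines read with resazurin; signal relative to control wells, capped at 0 and 100%. One two-parameter sigmoid per drug and line, fitted in a mixed model over all curves with the slope shared within a line.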
For orientation: IC50 means the midpoint of a concentration-inhibition curve. On to “BxPC-3 (pancreas, adherent, top dose 20 µM)”, for which the AUC is 0.687 and the half-inhibitory concentration (IC50) amounted to 4.47 µM.

Take “RH-18 (rhabdomyosarcoma, adherent, top dose 20 µM)”: the AUC came to 0.985 and the 50% inhibitory concentration (IC50) is more than 20 µM.

As for “A673 (rhabdomyosarcoma, adherent, top dose 20 µM)”, the AUC was found to be 0.99 and the IC50 was more than 20 µM.

Consider “Caov-4 (ovary, adherent, top dose 20 µM)”, for which the AUC amounted to 0.612 and the IC50 was 2.93 µM.

“NB69 (neuroblastoma, adherent, top dose 20 µM)”: the AUC turned out to be 0.595 and the IC50 turned out to be 2.2 µM.

In the case of “MV-4-11 (leukaemia, suspension, top dose 20 µM)”, the AUC was 0.28 and the IC50 stood at 0.341 µM.

With “H2804 (mesothelioma, adherent, top dose 20 µM)”, the AUC is 0.43 and the 50% inhibitory concentration (IC50) is 0.789 µM.

Turning to “YT (lymphoid neoplasm, suspension, top dose 20 µM)”, the AUC stood at 0.883 and the IC50 amounted to 15.9 µM.

On to “BL-41 (Burkitt lymphoma, suspension, top dose 20 µM)”, for which the AUC was determined as 0.779 and the 50% inhibitory concentration (IC50) stood at 6.24 µM.

With “FADU (head and neck, adherent, top dose 20 µM)”, the AUC stood at 0.919 and the concentration for half-maximal inhibition (IC50) was more than 20 µM.

With “CA46 (Burkitt lymphoma, suspension, top dose 20 µM)”, the AUC was found to be 0.681 and the IC50 amounted to 4.18 µM.

For the cell line “MHH-NB-11 (neuroblastoma, adherent, top dose 20 µM)”, the AUC is 0.92 and the IC50 is more than 20 µM.

Turning to “NCI-H187 (small cell lung carcinoma, suspension, top dose 20 µM)”, the AUC turned out to be 0.943 and the 50% inhibitory concentration (IC50) is more than 20 µM.

Regarding “SW156 (kidney, adherent, top dose 20 µM)”, the AUC came to 0.913 and the 50% inhibitory concentration (IC50) is more than 20 µM.

For “KMS-11 (myeloma, suspension, top dose 20 µM)”, the AUC came to 0.76 and the half-maximal inhibitory concentration (IC50) is 6.13 µM.

For “MFE-280 (endometrium, adherent, top dose 20 µM)”, the AUC stood at 0.943 and the IC50 was more than 20 µM.

Regarding “BICR31 (head and neck, adherent, top dose 20 µM)”, the AUC is 0.984 and the IC50 was more than 20 µM.

On to “SW982 (soft tissue, adherent, top dose 20 µM)”, for which the AUC worked out at 0.603 and the 50% inhibitory concentration (IC50) is 2.42 µM.

Regarding “ME-180 (cervix, adherent, top dose 20 µM)”, the AUC turned out to be 0.439 and the IC50 was 0.844 µM.

For “NCI-H2081 (small cell lung carcinoma, suspension, top dose 20 µM)”, the AUC was determined as 0.945 and the half-maximal inhibitory concentration (IC50) was more than 20 µM.

In the case of “DMS-114 (small cell lung carcinoma, adherent, top dose 20 µM)”, the AUC stood at 0.982 and the concentration for half-maximal inhibition (IC50) is more than 20 µM.

Turning to “HTC-C3 (thyroid, adherent, top dose 20 µM)”, the AUC is 0.855 and the IC50 came out at 19.1 µM.

Regarding “KELLY (neuroblastoma, adherent, top dose 20 µM)”, the AUC amounted to 0.989 and the half-inhibitory concentration (IC50) is more than 20 µM.

Turning to “TE-5 (oesophagus, adherent, top dose 20 µM)”, the AUC was determined as 0.982 and the IC50 was more than 20 µM.

As to “MOG-G-CCM (glioma, adherent, top dose 20 µM)”, the AUC was 0.769 and the IC50 was 8.84 µM.

Consider “PC-3 [JPC-3] (lung adenocarcinoma, adherent, top dose 20 µM)”, for which the AUC turned out to be 0.828 and the half-maximal inhibitory concentration (IC50) came to 18.3 µM.

Turning to “HCC-15 (lung squamous cell carcinoma, adherent, top dose 20 µM)”, the AUC was found to be 0.793 and the half-inhibitory concentration (IC50) is 12.1 µM.

For the cell line RT4 (bladder, adherent, top dose 20 µM), the AUC came to 0.864 and the IC50 turned out to be 18.9 µM.

With “P12-ICHIKAWA (T-cell lymphoblastic leukaemia, suspension, top dose 20 µM)”, the AUC worked out at 0.569 and the half-inhibitory concentration (IC50) was determined as 1.84 µM.

On to “SCC-25 (head and neck, adherent, top dose 20 µM)”, for which the AUC stood at 0.843 and the IC50 stood at 16.9 µM.

On to “22RV1 (prostate, adherent, top dose 20 µM)”, for which the AUC stood at 0.874 and the IC50 was more than 20 µM.

“SIMA (neuroblastoma, adherent, top dose 20 µM)”: the AUC turned out to be 0.849 and the IC50 came out at 18.2 µM.

On to “SW872 (soft tissue, adherent, top dose 20 µM)”, for which the AUC came out at 0.919 and the half-maximal inhibitory concentration (IC50) was more than 20 µM.

In the case of “NU-DUL-1 (B-cell lymphoma, suspension, top dose 20 µM)”, the AUC is 0.883 and the IC50 stood at 14.2 µM.

For the cell line OV-90 (ovary, adherent, top dose 20 µM), the AUC stood at 0.764 and the IC50 came out at 9.28 µM.

With “WM-115 (melanoma, adherent, top dose 20 µM)”, the AUC was 0.827 and the IC50 was determined as 16 µM.

In the case of “697 (lymphoblastic leukaemia, suspension, top dose 20 µM)”, the AUC was 0.296 and the IC50 worked out at 0.383 µM.

Regarding “IM-95 (stomach, adherent, top dose 20 µM)”, the AUC is 0.643 and the IC50 worked out at 3.19 µM.

Take “DoTc2-4510 (cervix, adherent, top dose 20 µM)”: the AUC is 0.939 and the half-inhibitory concentration (IC50) is more than 20 µM.

In the case of “LC4-1 (lymphoblastic leukaemia, suspension, top dose 20 µM)”, the AUC worked out at 0.823 and the IC50 came to 13.5 µM.

Take HT-3 (cervix, adherent, top dose 20 µM): the AUC came out at 0.922 and the half-inhibitory concentration (IC50) is more than 20 µM.

As to A498 (kidney, adherent, top dose 20 µM), the AUC came to 0.857 and the IC50 was more than 20 µM.

“639-V (bladder, adherent, top dose 20 µM)”: the AUC worked out at 0.989 and the IC50 is more than 20 µM.

In the case of “NCI-H1648 (lung adenocarcinoma, adherent, top dose 20 µM)”, the AUC amounted to 0.518 and the half-maximal inhibitory concentration (IC50) is 1.41 µM.

Turning to “LAN-6 (neuroblastoma, adherent, top dose 20 µM)”, the AUC stood at 0.821 and the concentration for half-maximal inhibition (IC50) was 14.5 µM.

On to “SW48 (large intestine, adherent, top dose 20 µM)”, for which the AUC came out at 0.931 and the IC50 was more than 20 µM.

“8-MG-BA (glioma, adherent, top dose 20 µM)”: the AUC worked out at 0.876 and the half-maximal inhibitory concentration (IC50) worked out at 17.8 µM.

On to “MES-SA (uterus, adherent, top dose 20 µM)”, for which the AUC was found to be 0.823 and the IC50 was determined as 9.52 µM.

Take “HCC1599 (breast, suspension, top dose 20 µM)”: the AUC turned out to be 0.765 and the concentration for half-maximal inhibition (IC50) came out at 8.33 µM.

Turning to “HO-1-N-1 (head and neck, adherent, top dose 20 µM)”, the AUC amounted to 0.93 and the IC50 is more than 20 µM.

“TOV-21G (ovary, adherent, top dose 20 µM)”: the AUC was 0.504 and the 50% inhibitory concentration (IC50) amounted to 1.28 µM.

For the cell line “NCI-H1915 (large cell lung carcinoma, adherent, top dose 20 µM)”, the AUC is 0.772 and the IC50 was determined as 7.85 µM.

In the case of “CAS-1 (glioma, adherent, top dose 20 µM)”, the AUC came to 0.951 and the IC50 is more than 20 µM.

As to “JSC-1 (B-cell lymphoma, suspension, top dose 20 µM)”, the AUC came out at 0.885 and the IC50 is more than 20 µM.

In the case of “ES8 (Ewing sarcoma, adherent, top dose 20 µM)”, the AUC came out at 0.907 and the IC50 was more than 20 µM.

On to “JIMT-1 (breast, adherent, top dose 20 µM)”, for which the AUC came to 0.893 and the half-maximal inhibitory concentration (IC50) was more than 20 µM.

For the cell line “ES4 (Ewing sarcoma, adherent, top dose 20 µM)”, the AUC came to 0.966 and the IC50 is more than 20 µM.

“SCC-3 (B-cell lymphoma, suspension, top dose 20 µM)”: the AUC was determined as 0.904 and the half-maximal inhibitory concentration (IC50) came out at 13.3 µM.

“LS-411N (large intestine, adherent, top dose 20 µM)”: the AUC was determined as 0.855 and the half-inhibitory concentration (IC50) is more than 20 µM.

Take “NCI-H2085 (lung adenocarcinoma, adherent, top dose 20 µM)”: the AUC worked out at 0.816 and the 50% inhibitory concentration (IC50) came to 12.2 µM.

For the cell line “MOLM-13 (acute myeloid leukaemia, suspension, top dose 20 µM)”, the AUC was 0.439 and the IC50 was found to be 0.859 µM.

“C2BBe1 (large intestine, adherent, top dose 20 µM)”: the AUC is 0.977 and the IC50 is more than 20 µM.

Consider “Hs633T (fibrosarcoma, adherent, top dose 20 µM)”, for which the AUC turned out to be 0.969 and the half-inhibitory concentration (IC50) is more than 20 µM.

As to “ST486 (Burkitt lymphoma, suspension, top dose 20 µM)”, the AUC came out at 0.508 and the half-inhibitory concentration (IC50) turned out to be 1.31 µM.

For “GOTO (neuroblastoma, adherent, top dose 20 µM)”, the AUC was 0.93 and the concentration for half-maximal inhibition (IC50) is more than 20 µM.

In the case of “769-P (kidney, adherent, top dose 20 µM)”, the AUC is 0.366 and the IC50 stood at 0.515 µM.

Consider “JVM-2 (lymphoid neoplasm, suspension, top dose 20 µM)”, for which the AUC is 0.95 and the half-maximal inhibitory concentration (IC50) was more than 20 µM.
